Test results reported in PubChem BioAssay (NCI).
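Grown in 96-well plates, cells were treated for 48 hours with each compound at five concentrations. Insufficient inhibition: endpoint recorded as highest concentration tested. GI50 = concentration required for 50% inhibition of growth.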 For part of its entries the source gives two or more results. This list holds those alone. An entry can have further records. A record mostly stands for its own series of concentrations, which the source does not state; a value can be the end of its range.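 The concentration for full growth arrest is given as TGI.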

Tests used:
Test in all cases: NCI anticancer screen, dose series, 48 h
NCI/ADR-RES ovarian = test system: NCI/ADR-RES ovarian
T-47D breast = test system: T-47D breast
HOP-62 NSCLC = test system: HOP-62 NSCLC
MDA-MB-231 breast = test system: MDA-MB-231 breast
MCF7 breast = test system: MCF7 breast
UO-31 renal = test system: UO-31 renal
SK-MEL-5 melanoma = test system: SK-MEL-5 melanoma
MALME-3M melanoma = test system: MALME-3M melanoma
MOLT-4 leukemia = test system: MOLT-4 leukemia
LOX IMVI melanoma = test system: LOX IMVI melanoma
HOP-92 NSCLC = test system: HOP-92 NSCLC
786-0 renal = test system: 786-0 renal
ACHN renal = test system: ACHN renal
SW-620 colon = test system: SW-620 colon
HT29 colon = test system: HT29 colon
IGROV1 ovarian = test system: IGROV1 ovarian
BT-549 breast = test system: BT-549 breast
HL-60(TB) leukemia = test system: HL-60(TB) leukemia
PC-3 prostate = test system: PC-3 prostate
HCT-15 colon = test system: HCT-15 colon
COLO 205 colon = test system: COLO 205 colon
SK-MEL-2 melanoma = test system: SK-MEL-2 melanoma
OVCAR-3 ovarian = test system: OVCAR-3 ovarian
OVCAR-4 ovarian = test system: OVCAR-4 ovarian
MDA-MB-435 = test system: MDA-MB-435
UACC-62 melanoma = test system: UACC-62 melanoma
SK-OV-3 ovarian = test system: SK-OV-3 ovarian
NCI-H522 lung = test system: NCI-H522 lung
OVCAR-8 ovarian = test system: OVCAR-8 ovarian
SN12C renal = test system: SN12C renal
U251 CNS = test system: U251 CNS
NCI-H23 lung = test system: NCI-H23 lung
SF-268 CNS = test system: SF-268 CNS
NCI-H460 lung = test system: NCI-H460 lung
RPMI-8226 leukemia = test system: RPMI-8226 leukemia
RXF 393 renal = test system: RXF 393 renal
SK-MEL-28 melanoma = test system: SK-MEL-28 melanoma
DU-145 prostate = test system: DU-145 prostate
SF-295 CNS = test system: SF-295 CNS
SNB-75 CNS = test system: SNB-75 CNS
A549 NSCLC = test system: A549 NSCLC
HCT-116 colon = test system: HCT-116 colon
K-562 leukemia = test system: K-562 leukemia
HS 578T breast = test system: HS 578T breast
CCRF-CEM leukemia = test system: CCRF-CEM leukemia
KM12 colon = test system: KM12 colon
A498 renal = test system: A498 renal
HCC-2998 colon = test system: HCC-2998 colon
EKVX NSCLC = test system: EKVX NSCLC
SF-539 CNS = test system: SF-539 CNS
TK-10 renal = test system: TK-10 renal
NCI-H226 lung = test system: NCI-H226 lung
CAKI-1 renal = test system: CAKI-1 renal
UACC-257 melanoma = test system: UACC-257 melanoma
M14 melanoma = test system: M14 melanoma
OVCAR-5 ovarian = test system: OVCAR-5 ovarian
SR leukemia = test system: SR leukemia
SNB-19 CNS = test system: SNB-19 CNS

O=C(Nc1cccc(-n2ccc3c(NC(=O)c4ccccc4)nccc32)c1)c1ccc(Cl)c(C(F)(F)F)c1
GI50 (NCI/ADR-RES ovarian): 9.03 µM [1 test] and 96.1 nM [mean of 2 tests] | TGI (NCI/ADR-RES ovarian): 41.7 µM [1 test] and 294 nM [mean of 2 tests] | TGI (T-47D breast): > 100 µM [1 test] and 2.05 µM [mean of 2 tests] | GI50 (HOP-62 NSCLC): 11.6 µM [1 test] and 276 nM [mean of 2 tests] | TGI (HOP-62 NSCLC): > 100 µM [1 test] and 1.26 µM [mean of 2 tests] | GI50 (MDA-MB-231 breast): 29.2 µM [1 test] and 180 nM [mean of 2 tests] | TGI (MDA-MB-231 breast): > 100 µM [1 test] and 1.09 µM [mean of 2 tests] | GI50 (MCF7 breast): 2.92 µM [1 test] and 60.5 nM [mean of 2 tests] | TGI (MCF7 breast): 20.4 µM [1 test] and 785 nM [mean of 2 tests] | GI50 (UO-31 renal): 25.8 µM [1 test] and 402 nM [mean of 2 tests] | TGI (UO-31 renal): > 100 µM [1 test] and 6.67 µM [mean of 2 tests] | GI50 (SK-MEL-5 melanoma): 7.78 µM [1 test] and 70.6 nM [mean of 2 tests] | TGI (SK-MEL-5 melanoma): > 100 µM [1 test] and 206 nM [mean of 2 tests] | GI50 (MALME-3M melanoma): 72.9 µM [1 test] and 285 nM [mean of 2 tests] | TGI (MALME-3M melanoma): > 100 µM [1 test] and 1.61 µM [mean of 2 tests] | GI50 (MOLT-4 leukemia): 3.95 µM [1 test] and 332 nM [mean of 2 tests] | TGI (MOLT-4 leukemia): 98.1 µM [1 test] and 9.49 µM [mean of 2 tests] | TGI (LOX IMVI melanoma): 13.9 µM [1 test] and 766 nM [mean of 2 tests] | TGI (HOP-92 NSCLC): > 100 µM [1 test] and 4.24 µM [mean of 2 tests] | GI50 (786-0 renal): 235 nM and 6.88 µM | TGI (786-0 renal): 967 nM and > 100 µM | GI50 (ACHN renal): 8.8 µM [1 test] and 144 nM [mean of 2 tests] | TGI (ACHN renal): > 100 µM [1 test] and 2.1 µM [mean of 2 tests] | GI50 (SW-620 colon): 3.46 µM [1 test] and 152 nM [mean of 2 tests] | TGI (SW-620 colon): 30.8 µM [1 test] and 749 nM [mean of 2 tests] | GI50 (HT29 colon): 2.33 µM [1 test] and 142 nM [mean of 2 tests] | TGI (HT29 colon): 28.8 µM [1 test] and 499 nM [mean of 2 tests] | GI50 (IGROV1 ovarian): 64.6 µM [1 test] and 196 nM [mean of 2 tests] | TGI (IGROV1 ovarian): > 100 µM [1 test] and 4.79 µM [mean of 2 tests] | GI50 (BT-549 breast): 211 nM and 4.8 µM | TGI (BT-549 breast): 948 nM and > 100 µM | GI50 (HL-60(TB) leukemia): 22.4 µM [1 test] and 163 nM [mean of 2 tests] | TGI (HL-60(TB) leukemia): 64.3 µM [1 test] and 1.33 µM [mean of 2 tests] | TGI (PC-3 prostate): > 100 µM [1 test] and 2.99 µM [mean of 2 tests] | GI50 (HCT-15 colon): 485 nM [1 test] and 34.3 nM [mean of 2 tests] | TGI (HCT-15 colon): 47.3 µM [1 test] and 869 nM [mean of 2 tests] | GI50 (COLO 205 colon): 16.2 µM [1 test] and 146 nM [mean of 2 tests] | TGI (COLO 205 colon): > 100 µM [1 test] and 448 nM [mean of 2 tests] | GI50 (SK-MEL-2 melanoma): 195 nM and 40.7 µM | TGI (SK-MEL-2 melanoma): 2.28 µM and > 100 µM | GI50 (OVCAR-3 ovarian): 19 µM [1 test] and 98.1 nM [mean of 2 tests] | TGI (OVCAR-3 ovarian): > 100 µM [1 test] and 331 nM [mean of 2 tests] | GI50 (OVCAR-4 ovarian): 14.6 µM [1 test] and 364 nM [mean of 2 tests] | TGI (OVCAR-4 ovarian): 45.7 µM [1 test] and 1.72 µM [mean of 2 tests] | GI50 (MDA-MB-435): 4.52 µM [1 test] and 24.2 nM [mean of 2 tests] | TGI (MDA-MB-435): 51 µM [1 test] and 117 nM [mean of 2 tests] | GI50 (UACC-62 melanoma): 5.29 µM [1 test] and 89.2 nM [mean of 2 tests] | TGI (UACC-62 melanoma): > 100 µM [1 test] and 908 nM [mean of 2 tests] | GI50 (SK-OV-3 ovarian): 157 nM and > 100 µM | TGI (SK-OV-3 ovarian): 5.7 µM and > 100 µM | GI50 (NCI-H522 lung): 5.77 µM [1 test] and 27.8 nM [mean of 2 tests] | TGI (NCI-H522 lung): 38 µM [1 test] and 188 nM [mean of 2 tests] | GI50 (OVCAR-8 ovarian): 3.37 µM [1 test] and 175 nM [mean of 2 tests] | TGI (OVCAR-8 ovarian): 33.9 µM [1 test] and 990 nM [mean of 2 tests] | GI50 (SN12C renal): 10.1 µM [1 test] and 226 nM [mean of 2 tests] | TGI (SN12C renal): > 100 µM [1 test] and 1.15 µM [mean of 2 tests] | TGI (U251 CNS): 19 µM [1 test] and 752 nM [mean of 2 tests] | GI50 (NCI-H23 lung): 42.6 µM [1 test] and 220 nM [mean of 2 tests] | TGI (NCI-H23 lung): > 100 µM [1 test] and 1.93 µM [mean of 2 tests] | GI50 (SF-268 CNS): 13.3 µM [1 test] and 189 nM [mean of 2 tests] | TGI (SF-268 CNS): > 100 µM [1 test] and 1.87 µM [mean of 2 tests] | TGI (NCI-H460 lung): 15.6 µM [1 test] and 476 nM [mean of 2 tests] | GI50 (RPMI-8226 leukemia): 1.8 µM [1 test] and 178 nM [mean of 2 tests] | TGI (RPMI-8226 leukemia): 42.2 µM [1 test] and 1.57 µM [mean of 2 tests] | GI50 (RXF 393 renal): 32.8 µM [1 test] and 83.2 nM [mean of 2 tests] | TGI (RXF 393 renal): > 100 µM [1 test] and 322 nM [mean of 2 tests] | GI50 (SK-MEL-28 melanoma): 17.5 µM [1 test] and 244 nM [mean of 2 tests] | TGI (SK-MEL-28 melanoma): > 100 µM [1 test] and 1.08 µM [mean of 2 tests] | GI50 (DU-145 prostate): 12.1 µM [1 test] and 144 nM [mean of 2 tests] | TGI (DU-145 prostate): > 100 µM [1 test] and 453 nM [mean of 2 tests] | GI50 (SF-295 CNS): 3.81 µM [1 test] and 99.3 nM [mean of 2 tests] | TGI (SF-295 CNS): > 100 µM [1 test] and 561 nM [mean of 2 tests] | GI50 (SNB-75 CNS): 153 nM and 34.5 µM | TGI (SNB-75 CNS): 837 nM and > 100 µM | GI50 (A549 NSCLC): 2.11 µM [1 test] and 173 nM [mean of 2 tests] | TGI (A549 NSCLC): 21.5 µM [1 test] and 921 nM [mean of 2 tests] | TGI (HCT-116 colon): 18.6 µM [1 test] and 708 nM [mean of 2 tests] | GI50 (K-562 leukemia): 2.4 µM [1 test] and 97.3 nM [mean of 2 tests] | GI50 (HS 578T breast): 39.5 µM [1 test] and 119 nM [mean of 2 tests] | TGI (HS 578T breast): > 100 µM [1 test] and 976 nM [mean of 2 tests] | GI50 (CCRF-CEM leukemia): 137 nM and 5.3 µM | TGI (CCRF-CEM leukemia): 1.31 µM and 51.1 µM | GI50 (KM12 colon): 5.59 µM [1 test] and 103 nM [mean of 2 tests] | TGI (KM12 colon): 36.8 µM [1 test] and 765 nM [mean of 2 tests] | GI50 (A498 renal): 32 µM [1 test] and 88.9 nM [mean of 2 tests] | TGI (A498 renal): > 100 µM [1 test] and 903 nM [mean of 2 tests] | GI50 (HCC-2998 colon): 12.4 µM [1 test] and 193 nM [mean of 2 tests] | TGI (HCC-2998 colon): 70.7 µM [1 test] and 2.23 µM [mean of 2 tests] | GI50 (EKVX NSCLC): > 100 µM [1 test] and 619 nM [mean of 2 tests] | GI50 (SF-539 CNS): 14.9 µM [1 test] and 135 nM [mean of 2 tests] | TGI (SF-539 CNS): > 100 µM [1 test] and 488 nM [mean of 2 tests] | TGI (TK-10 renal): > 100 µM [1 test] and 1.88 µM [mean of 2 tests] | GI50 (NCI-H226 lung): > 100 µM [1 test] and 310 nM [mean of 2 tests] | GI50 (CAKI-1 renal): 3.99 µM [1 test] and 106 nM [mean of 2 tests] | TGI (CAKI-1 renal): > 100 µM [1 test] and 1.19 µM [mean of 2 tests] | TGI (UACC-257 melanoma): > 100 µM [1 test] and 4.81 µM [mean of 2 tests] | GI50 (M14 melanoma): 10.6 µM [1 test] and 148 nM [mean of 2 tests] | TGI (M14 melanoma): > 100 µM [1 test] and 734 nM [mean of 2 tests] | GI50 (OVCAR-5 ovarian): > 100 µM [1 test] and 222 nM [mean of 2 tests] | TGI (OVCAR-5 ovarian): > 100 µM [1 test] and 4.89 µM [mean of 2 tests] | GI50 (SR leukemia): 1.14 µM [1 test] and 49.9 nM [mean of 2 tests] | GI50 (SNB-19 CNS): 16.8 µM [1 test] and 185 nM [mean of 2 tests] | TGI (SNB-19 CNS): > 100 µM [1 test] and 4.06 µM [mean of 2 tests]
